Source: PubChem BioAssay AID1345083 (National Center for Advancing Translational Sciences (NCATS), 2018)
Screen size: about 94,000 compounds; about 6,200 (6.6%) were called active. The inconclusive results got no clear call from the source; some entries with a clear call stand among them for comparison. Calls come from the whole dose curve; as a rule, active = well fitted inhibition curve with a large enough effect; inconclusive = small, poorly fitted or top-dose-only effect; inactive = flat fitted curve, though single readings scatter. Where the call is inconclusive, the potency comes from a doubtful curve fit.

experiment: Cytotoxic Profiling in HEK 293 Cell Line of Diverse Libraries Using Quantitative High-Throughput Screening; conditions: HEK 293 viability, ATP luminescence (CellTiter-Glo), 48-72 h; series mostly up to 115 µM; note: nearly all actives have a fitted effect of over 60% in size
Method in brief: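 CellTiter-Glo luminescence (cellular ATP) was read after 48 or 72 hr of compound exposure at 37 degree Celsius. Cells were HEK 293 plated at 250 cells/well.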
Potency is the fitted concentration of half-maximal effect; tags give direction and shape of the fitted curve.

| Structure (SMILES) | Potency |
| --- | --- |
| O=C(c1cc(F)ccc1F)N1CC(Oc2cccc(-c3nc(-c4ccccc4)no3)c2)C1 | inconclusive: 10 µM [inhibitor, full curve, poor fit] |
| COc1ccc(OC)c(S(=O)(=O)N[C@H]2CO[C@H]3[C@@H]2OC[C@H]3OC(=O)Nc2cccc(C(F)(F)F)c2)c1 | inconclusive: 35.5 µM [inhibitor, full curve, poor fit] |
| O=C(O)C1CC2(CCN(C(=O)CN3CCCC3=O)CC2)CN1 (centres undefined) | inconclusive: 28.2 µM [inhibitor, single point] |
| O=C(NC1CCCCC1)N1C[C@@H]2C[C@H](C1)c1c(-c3ccc4ccccc4c3)ccc(=O)n1C2 | inconclusive: 50.1 µM [inhibitor, partial curve] |
| COc1ccc(-c2cc(-c3cccnc3)cn3cncc23)cc1 | inconclusive: 70.8 µM [inhibitor, partial curve, poor fit] |
| CN(C)C(=O)C1CN(C(=O)Cc2ccccc2Cl)CC12CCOCC2 (centres undefined) | inconclusive: 39.8 µM [inhibitor, full curve] |
| N#Cc1cccnc1-c1ccc(C(=O)N2CCC(NC(=O)c3ccccc3F)CC2)cc1 | inconclusive: 50.1 µM [inhibitor, partial curve, poor fit] |
| O=C(c1ccc(CO)o1)N1CCC2(CC1)[C@H](O)C[C@@H]2OCCO | inactive |
| CC(C)c1noc([C@@H]2C[C@@H](O)CN2Cc2cc3ccccc3o2)n1 | inactive |
| Cc1cnc(C2CC2)n1C1CCN(C(=O)c2ccoc2)CC1 | inactive |
| O=C(Cc1ccccn1)NC1CCN(Cc2cccc(-c3cccs3)c2)CC1 | inconclusive: 56.2 µM [inhibitor, partial curve, poor fit] |
| O=C(NCc1ccccc1)C1CCCN1c1nccc(Nc2ccccc2F)n1 (centres undefined) | inconclusive: 56.2 µM [inhibitor, partial curve, poor fit] |
| Cc1noc(C)c1S(=O)(=O)N1CCc2nn(Cc3ccccc3)c(=O)n2CC1 | inactive |
| COCCN1C(=O)c2ccccc2C(C(=O)Nc2nc(C)c(C)s2)C12CCCC2 (centres undefined) | inactive |
| Cc1nn(-c2ccccc2)c2c1C(C1CC1)N(C1CCN(C(=O)c3ccc(Cl)nc3)C1)C2=O (centres undefined) | inconclusive: 70.8 µM [inhibitor, partial curve, poor fit] |
| CC(=O)N1CCOc2ccc(CCC(=O)NCc3nc4ccccc4n3C)cc2C1 | inactive |
| CC(C)NC(=O)c1cnc2c(c1)N(C(=O)Cc1cn(C)c3ccccc13)CCC2 | inconclusive: 100 µM [inhibitor, partial curve] |
| COc1cccc(C(=O)N2CCCN(c3ccc4nnc(C5CC5)n4n3)CC2)c1 | inactive |
| COc1ccc(NC(=O)C2CCN(c3cc(C(F)(F)F)ncn3)CC2)cc1Cl | inconclusive: 39.8 µM [inhibitor, partial curve, poor fit] |
| O=C1Nc2ccc(-c3ccccc3F)cc2C(=O)N2CCN(C(=O)c3ccccc3)C[C@H]12 | inconclusive: 89.1 µM [inhibitor, partial curve, poor fit] |

| Structure (SMILES) | Potency |
| --- | --- |
| CN1CCCN(C(=O)c2ccc(F)cc2)c2ccccc21 | inactive |
| Cc1ccc(C(=O)N2CCC3(CC2)NC(=O)N(c2ccccc2)N3)s1 | inconclusive: 39.8 µM [inhibitor, partial curve] |
| Clc1cccc(-c2cnc([C@@H]3COCCN3Cc3c[nH]c4ccccc34)[nH]2)c1 | inconclusive: 63.1 µM [inhibitor, full curve, poor fit] |
| COc1cccc(CNC(=O)CN2C(=O)NC(c3ccc(Cl)cc3)C3=C2COC3=O)c1OC (centres undefined) | inconclusive: 79.4 µM [inhibitor, partial curve, poor fit] |
| O=C(Nc1ccccc1)O[C@@H]1CO[C@H]2[C@@H]1OC[C@@H]2n1nnnc1Sc1ccccc1 | inconclusive: 100 µM [inhibitor, partial curve, poor fit] |
| O=C(Cc1ccccc1)NC1CCN(c2ccc3nnc(C4CC4)n3n2)C1 (centres undefined) | inactive |
| CCC1=C(C(=O)OC)C(c2ccc(Cl)cc2)N2C(CC(=O)N3CCOCC3)=CSC2=N1 (centres undefined) | inconclusive: 100 µM [inhibitor, single point] |
| O=C1c2cc(N3CCOCC3)nc(-c3ccccc3F)c2CN1CC1CC1 | inconclusive: 89.1 µM [inhibitor, partial curve] |
| Cc1nnc2ccc(N3CCCC(NC(=O)c4ccc(F)cc4)C3)nn12 (centres undefined) | inactive |
| O=C(CNC(=O)c1ccc(-c2cccc(C(F)(F)F)c2)cc1)NCC1CC1 | inconclusive: 31.6 µM [inhibitor, partial curve, poor fit] |
| N#Cc1cccc(NC(=O)N[C@H]2CO[C@H]3[C@@H]2OC[C@@H]3Nc2nccc(C3CCCC3)n2)c1 | inconclusive: 112 µM [inhibitor, partial curve, poor fit] |
| O=C(NCC1CC1)c1ccc2c(c1)C1(CCN(CC3CC3)C1)CN2Cc1ccccc1 (centres undefined) | inconclusive: 112 µM [inhibitor, partial curve, poor fit] |
| O=C(Nc1ccc(Cl)cc1)N1CCN(Cc2ccccc2-c2ccccc2F)CC1 | inconclusive: 50.1 µM [inhibitor, partial curve, poor fit] |
| COc1ccc(-c2onc(C)c2C(=O)NCc2cccc(OC)c2)cc1 | inconclusive: 89.1 µM [inhibitor, partial curve, poor fit] |
| COc1cccc(C(=O)NC2CN(c3ccnc4ccnn34)C2)c1 | inconclusive: 56.2 µM [inhibitor, partial curve, poor fit] |
| Cc1cccc(-c2nc3ccc(C(=O)NCc4ccccc4Cl)cc3o2)n1 | inconclusive: 50.1 µM [inhibitor, partial curve, poor fit] |
| O=C(NCCCc1ccccc1)c1nc2cccnc2n(Cc2ccccc2)c1=O | inconclusive: 56.2 µM [inhibitor, partial curve, poor fit] |
| O=C(Nc1cccc(Cl)c1)C1CN(C2CCCC2)C(=O)N1 (centres undefined) | inconclusive: 100 µM [inhibitor, partial curve] |
| O=C(Nc1cccc(C(F)(F)F)c1)O[C@@H]1CO[C@H]2[C@@H]1OC[C@@H]2NS(=O)(=O)c1cccs1 | inconclusive: 50.1 µM [inhibitor, partial curve, poor fit] |
